# Data published in the supplement of paper PMC8728848.
# Some of the results follow.
# B1: PX9961C-bth-497-22-497 (Bacteroides thetaiotaomicron) (protein)
# chain: DWLDLNTTSSVETGQAIVTLDDAQIALNGIYRLASGHSYYGDNYWYYGDCRAADVQARITKGDGKRVSPYYEYNVLASDNLNIVLPWNTVYKVIRQTNNLIQKIESGSIQSSDTKELNRIKSEALVMRGLSLFNLTRLFGMPYTNDKGASLGVPIETSPSDPTHKPSRSTVAQCYEQVVSDMSNALSGLRQETSNGYINYWAAQALLSRVYLNMGEYQKAYDAATDVIKNNGGRYQLYSYEEYPNVWGQDFQSESLFELYITLSEPSGGTGGEGAPMVYANEATVDWNNLILSEDFLNLLNEDPKDVRHCLTKESVIENNTGLPAAAMHEKVYLAKFPGKTGDDPKTNNICIIRLSEVYLNAAEAGLKKGTDIEEAQGYLNDIISRRTTDTSQQVSTETFTLDRILKERRKELVGEGEVFYDYLRNGLAIERKGSWHLETLKASNAQKIEATDLRIALPIPQSEIDANPNIQQNPR
# Tests used:
# Experiment in all cases: glycan array binding signal (z-score within array); higher = stronger binding
# Details in all cases: glycan notation: IUPAC condensed, linker removed
# [1] = biological target: Neu5Ac(a2-6)GlcNAc(b1-4)GlcNAc(b1-4)GlcNAc
# Method in brief: (§1)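 From the Consortium for Functional Glycomics database, 3228 arrays were curated, keeping only those whose protein sequence was available. Binding is given as a within-array Z-score averaged across arrays sharing a protein sequence and across linkers. Negative Z-scores can be read as non-binding.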
# Neu5Ac(a2-8)Neu5Ac = biological target: Neu5Ac(a2-8)Neu5Ac
# Method in brief: as §1
# [2] = biological target: Neu5Ac(a2-8)Neu5Ac(a2-3)Gal(b1-3)GalNAc(b1-4)[Neu5Ac(a2-3)]Gal(b1-4)Glc
# Method in brief: as §1
# [3] = biological target: Neu5Ac(a2-8)Neu5Ac(a2-3)Gal(b1-3)GalNAc(b1-4)[Neu5Ac(a2-8)Neu5Ac(a2-3)]Gal(b1-4)Glc
# Method in brief: as §1
# [4] = biological target: Neu5Ac(a2-8)Neu5Ac(a2-3)Gal(b1-4)Glc
# Method in brief: as §1
# [5] = biological target: Neu5Ac(a2-8)Neu5Ac(a2-3)Gal(b1-4)GlcNAc
# Method in brief: as §1
# [6] = biological target: Neu5Ac(a2-8)Neu5Ac(a2-3)[Gal(b1-3)GalNAc(b1-4)]Gal(b1-4)Glc
# Method in brief: as §1
# [7] = biological target: Neu5Ac(a2-8)Neu5Ac(a2-3)[GalNAc(b1-4)]Gal(b1-4)Glc
# Method in brief: as §1
# [8] = biological target: Neu5Ac(a2-8)Neu5Ac(a2-8)Neu5Ac
# Method in brief: as §1
# [9] = biological target: Neu5Ac(a2-8)Neu5Ac(a2-8)Neu5Ac(a2-3)Gal(b1-4)Glc
# Method in brief: as §1
# [10] = biological target: Neu5Ac(a2-8)Neu5Ac(a2-8)Neu5Ac(a2-3)[Gal(b1-3)GalNAc(b1-4)]Gal(b1-4)Glc
# Method in brief: as §1
# [11] = biological target: Neu5Ac(a2-8)Neu5Ac(a2-8)Neu5Ac(a2-3)[GalNAc(b1-4)]Gal(b1-4)Glc
# Method in brief: as §1
# [12] = biological target: Neu5Ac(a2-8)Neu5Ac(a2-8)Neu5Ac(a2-8)Neu5Ac(a2-3)[GalNAc(b1-4)]Gal(b1-4)Glc
# Method in brief: as §1
# [13] = biological target: Neu5Ac(a2-8)Neu5Gc(a2-3)Gal(b1-4)GlcNAc
# Method in brief: as §1
# [14] = biological target: Neu5Ac(b2-6)Gal(b1-4)GlcNAc
# Method in brief: as §1
# Neu5Ac(b2-6)GalNAc = biological target: Neu5Ac(b2-6)GalNAc
# Method in brief: as §1
# [15] = biological target: Neu5Ac9Ac(a2-3)Gal(b1-3)GlcNAc
# Method in brief: as §1
# [16] = biological target: Neu5Ac9Ac(a2-3)Gal(b1-4)GlcNAc
# Method in brief: as §1
# [17] = biological target: Neu5Ac9Ac(a2-6)Gal(b1-4)GlcNAc
# Method in brief: as §1
# [18] = biological target: Neu5Gc(a2-3)Gal(b1-3)GlcNAc
# Method in brief: as §1
# [19] = biological target: Neu5Gc(a2-3)Gal(b1-3)[Fuc(a1-4)]GlcNAc
# Method in brief: as §1
# Neu5Gc(a2-3)Gal(b1-4)Glc = biological target: Neu5Gc(a2-3)Gal(b1-4)Glc
# Method in brief: as §1
# [20] = biological target: Neu5Gc(a2-3)Gal(b1-4)GlcNAc
# Method in brief: as §1
# [21] = biological target: Neu5Gc(a2-3)Gal(b1-4)GlcNAc(b1-3)Gal(b1-4)GlcNAc(b1-2)Man(a1-3)[Neu5Gc(a2-3)Gal(b1-4)GlcNAc(b1-3)Gal(b1-4)GlcNAc(b1-2)Man(a1-6)]Man(b1-4)GlcNAc(b1-4)GlcNAc
# Method in brief: as §1
# [22] = biological target: Neu5Gc(a2-3)Gal(b1-4)[Fuc(a1-3)]GlcNAc
# Method in brief: as §1
# [23] = biological target: Neu5Gc(a2-6)Gal(b1-4)GlcNAc
# Method in brief: as §1
# Neu5Gc(a2-6)GalNAc = biological target: Neu5Gc(a2-6)GalNAc
# Method in brief: as §1
# [24] = biological target: Neu5Gc(a2-8)Neu5Ac(a2-3)Gal(b1-4)GlcNAc
# Method in brief: as §1
# [25] = biological target: Neu5Gc(a2-8)Neu5Gc(a2-3)Gal(b1-4)GlcNAc
# Method in brief: as §1
# [26] = biological target: Neu5Gc(a2-8)Neu5Gc(a2-3)Gal(b1-4)GlcNAc(b1-3)Gal(b1-4)GlcNAc
# Method in brief: as §1
# [27] = biological target: Neu5Gc(a2-8)Neu5Gc(a2-6)Gal(b1-4)GlcNAc
# Method in brief: as §1
# [28] = biological target: Neu5Gc(b2-6)Gal(b1-4)GlcNAc
# Method in brief: as §1
binder,measurement,setting,value
B1,glycan array binding signal (z-score),[1],-0.152
same,glycan array binding signal (z-score),Neu5Ac(a2-8)Neu5Ac,-0.167
same,glycan array binding signal (z-score),[2],-0.039
same,glycan array binding signal (z-score),[3],-0.295
same,glycan array binding signal (z-score),[4],-0.311
same,glycan array binding signal (z-score),[5],-0.198
same,glycan array binding signal (z-score),[6],-0.253
same,glycan array binding signal (z-score),[7],-0.361
same,glycan array binding signal (z-score),[8],-0.178
same,glycan array binding signal (z-score),[9],0.663
same,glycan array binding signal (z-score),[10],-0.241
same,glycan array binding signal (z-score),[11],-0.316
same,glycan array binding signal (z-score),[12],0.258
same,glycan array binding signal (z-score),[13],13.7
same,glycan array binding signal (z-score),[14],0.027
same,glycan array binding signal (z-score),Neu5Ac(b2-6)GalNAc,-0.424
same,glycan array binding signal (z-score),[15],-1.08
same,glycan array binding signal (z-score),[16],-0.26
same,glycan array binding signal (z-score),[17],0.211
same,glycan array binding signal (z-score),[18],-0.496
same,glycan array binding signal (z-score),[19],-0.425
same,glycan array binding signal (z-score),Neu5Gc(a2-3)Gal(b1-4)Glc,-0.693
same,glycan array binding signal (z-score),[20],-0.62
same,glycan array binding signal (z-score),[21],0.193
same,glycan array binding signal (z-score),[22],-0.294
same,glycan array binding signal (z-score),[23],-0.448
same,glycan array binding signal (z-score),Neu5Gc(a2-6)GalNAc,-0.538
same,glycan array binding signal (z-score),[24],0.361
same,glycan array binding signal (z-score),[25],-0.354
same,glycan array binding signal (z-score),[26],0.531
same,glycan array binding signal (z-score),[27],0.262
same,glycan array binding signal (z-score),[28],-0.207
